Data reported in the antibiotic and cytotoxicity screens of Wong et al. (2023).
The other results are listed elsewhere or left out.

Columns and labels:
HSkMC = human skeletal muscle cells; assay: cytotoxicity call (relative viability < 0.9); settings: 10 µM
HepG2 = assay: cytotoxicity call (relative viability < 0.9); settings: 10 µM
S. aureus RN4220 = assay: growth inhibition call (relative growth <= 0.2); settings: 50 µM

O=C(N[C@H]1CC[C@H](CC(=O)N2CCOCC2)O[C@@H]1CO)c1ccc2c(c1)OCO2
inactive: cytotoxicity call (HSkMC) | cytotoxicity call (HepG2) | growth inhibition call (S. aureus RN4220)

Cc1cc(O)cc(=O)[nH]1
inactive: cytotoxicity call (HSkMC) | cytotoxicity call (HepG2) | growth inhibition call (S. aureus RN4220)

COc1ccc(S(=O)(=O)N(C)C[C@@H]2Oc3ccc(NS(=O)(=O)c4c(C)noc4C)cc3CC(=O)N([C@H](C)CO)C[C@@H]2C)cc1
inactive: cytotoxicity call (HSkMC) | cytotoxicity call (HepG2) | growth inhibition call (S. aureus RN4220)

COc1ccc(NC(=O)N(C)C[C@H]2OCCCC[C@H](C)Oc3ccc(NS(=O)(=O)c4ccc(Cl)cc4)cc3C(=O)N([C@@H](C)CO)C[C@H]2C)cc1
inactive: cytotoxicity call (HSkMC) | cytotoxicity call (HepG2) | growth inhibition call (S. aureus RN4220)

Cn1c(=O)[nH]c2ncn(C)c2c1=O
inactive: cytotoxicity call (HSkMC) | cytotoxicity call (HepG2) | growth inhibition call (S. aureus RN4220)

CC(C)(S)C(N)C(=O)O.NCCO (configuration not stated)
inactive: cytotoxicity call (HSkMC) | cytotoxicity call (HepG2) | growth inhibition call (S. aureus RN4220)

C[C@H]1CN([C@@H](C)CO)C(=O)Cc2cc(NS(=O)(=O)c3cn(C)cn3)ccc2O[C@@H]1CN(C)C(=O)Nc1ccccc1
inactive: cytotoxicity call (HSkMC) | cytotoxicity call (HepG2) | growth inhibition call (S. aureus RN4220)

CN1C(=O)c2cc(NC(=O)c3cnccn3)ccc2OC[C@H]2O[C@@H](CC(=O)N[C@@H]3CCN(Cc4ccccc4)C3)CC[C@H]21
inactive: cytotoxicity call (HSkMC) | cytotoxicity call (HepG2) | growth inhibition call (S. aureus RN4220)

C[C@@H]1CN([C@@H](C)CO)C(=O)Cc2cc(NC(=O)c3ccncc3)ccc2O[C@H]1CN(C)S(=O)(=O)c1cn(C)cn1
inactive: cytotoxicity call (HSkMC) | cytotoxicity call (HepG2) | growth inhibition call (S. aureus RN4220)
